Reference: publication PMC12820563
The list shows a part of the results. The list includes weakly bound sequences.

These sequences were tested against T1, MBP-FoxP3dN (UniProt Q99JB6) (assay: PD-seq (MBP pull-down with sequencing)). Details: 20 mM Tris-HCl pH 7.5, 100 mM NaCl, 1.5 mM MgCl2, 0.4 uM protein, 0.1 uM dsDNA library, 30 min, room temperature, amylose pull-down; high values mean tight binding; double strand, one strand shown.
T1 sequence: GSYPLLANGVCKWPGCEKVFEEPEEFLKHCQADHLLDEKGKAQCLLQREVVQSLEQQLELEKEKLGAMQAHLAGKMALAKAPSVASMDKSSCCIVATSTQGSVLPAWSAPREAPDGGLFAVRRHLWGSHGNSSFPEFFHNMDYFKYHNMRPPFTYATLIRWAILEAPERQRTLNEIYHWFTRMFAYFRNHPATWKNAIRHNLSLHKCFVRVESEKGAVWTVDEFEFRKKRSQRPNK
“GATGATTGTTCTCCCAGCTGATGAATTAATGCGATCGAGTAAACAAATTTTCCTAATCTTTCTGTTCAAGCGCCATCTAC” was tested, and the binding signal (RPM ratio (pull-down/input)) was 1.87.
Sequence “GATGATTGTTCTCCCAGCTGATGAATTAACAGACTCGAGTAAACAAATTTTCCTAATCTTTCTGTTCAAGCGCCATCTAC” has a binding signal (RPM ratio (pull-down/input)) of 0.261.
“GATGATTGTTCTCCCAGCTGATGAATTGTGTAGGTCGAGTAAACAAATTTTCCTAATCTTTCTGTTCAAGCGCCATCTAC” gave a binding signal (RPM ratio (pull-down/input)) of 1.87.
In the case of “GATGATTGTTCTCCCAGCTGATGAATTAAAGATGTCGAGTAAACAAATTTTCCTAATCTTTCTGTTCAAGCGCCATCTAC”, the binding signal (RPM ratio (pull-down/input)) is reported as 0.327.
In the case of “GATGATTGTTCTCCCAGCTGATGAATTTTAGTGGTCGAGTAAACAAATTTTCCTAATCTTTCTGTTCAAGCGCCATCTAC”, the binding signal (RPM ratio (pull-down/input)) is reported as 0.466.
“GATGATTGTTCTCCCAGCTGATGAATTTAAGCGTTCGAGTAAACAAATTTTCCTAATCTTTCTGTTCAAGCGCCATCTAC” showed a binding signal (RPM ratio (pull-down/input)) of 1.3.
For “GATGATTGTTCTCCCAGCTGATGAATTATCAGGATCGAGTAAACAAATTTTCCTAATCTTTCTGTTCAAGCGCCATCTAC”, the binding signal (RPM ratio (pull-down/input)) was 0.217.
“GATGATTGTTCTCCCAGCTGATGAATTGAAAGCGTCGAGTAAACAAATTTTCCTAATCTTTCTGTTCAAGCGCCATCTAC” showed a binding signal (RPM ratio (pull-down/input)) of 0.385.
In the case of “GATGATTGTTCTCCCAGCTGATGAATTAGGATCCTCGAGTAAACAAATTTTCCTAATCTTTCTGTTCAAGCGCCATCTAC”, the binding signal (RPM ratio (pull-down/input)) is reported as 0.342.
In the case of “GATGATTGTTCTCCCAGCTGATGAATTCGGATGGTCGAGTAAACAAATTTTCCTAATCTTTCTGTTCAAGCGCCATCTAC”, the binding signal (RPM ratio (pull-down/input)) is reported as 0.433.
In the case of “GATGATTGTTCTCCCAGCTGATGAATTTTCCTTGTCGAGTAAACAAATTTTCCTAATCTTTCTGTTCAAGCGCCATCTAC”, the binding signal (RPM ratio (pull-down/input)) is reported as 0.276.
“GATGATTGTTCTCCCAGCTGATGAATTAGCATGCTCGAGTAAACAAATTTTCCTAATCTTTCTGTTCAAGCGCCATCTAC” was tested, and the binding signal (RPM ratio (pull-down/input)) was 1.67.
For “GATGATTGTTCTCCCAGCTGATGAATTTTAATCGTCGAGTAAACAAATTTTCCTAATCTTTCTGTTCAAGCGCCATCTAC”, the binding signal (RPM ratio (pull-down/input)) was 0.426.
In the case of “GATGATTGTTCTCCCAGCTGATGAATTCGCCGACTCGAGTAAACAAATTTTCCTAATCTTTCTGTTCAAGCGCCATCTAC”, the binding signal (RPM ratio (pull-down/input)) is reported as 0.246.
With “GATGATTGTTCTCCCAGCTGATGAATTTGGAGAATCGAGTAAACAAATTTTCCTAATCTTTCTGTTCAAGCGCCATCTAC” the binding signal (RPM ratio (pull-down/input)) was 0.244.
“GATGATTGTTCTCCCAGCTGATGAATTATATACTTCGAGTAAACAAATTTTCCTAATCTTTCTGTTCAAGCGCCATCTAC” was tested, and the binding signal (RPM ratio (pull-down/input)) was 0.724.
“GATGATTGTTCTCCCAGCTGATGAATTCGTTCTGTCGAGTAAACAAATTTTCCTAATCTTTCTGTTCAAGCGCCATCTAC” gave a binding signal (RPM ratio (pull-down/input)) of 0.346.
Sequence “GATGATTGTTCTCCCAGCTGATGAATTCACATAGTCGAGTAAACAAATTTTCCTAATCTTTCTGTTCAAGCGCCATCTAC” has a binding signal (RPM ratio (pull-down/input)) of 0.335.
“GATGATTGTTCTCCCAGCTGATGAATTTGTCATTTCGAGTAAACAAATTTTCCTAATCTTTCTGTTCAAGCGCCATCTAC” was tested, and the binding signal (RPM ratio (pull-down/input)) was 5.68.
With “GATGATTGTTCTCCCAGCTGATGAATTTCTAGTTTCGAGTAAACAAATTTTCCTAATCTTTCTGTTCAAGCGCCATCTAC” the binding signal (RPM ratio (pull-down/input)) was 0.285.
In the case of “GATGATTGTTCTCCCAGCTGATGAATTGGAAGTCTCGAGTAAACAAATTTTCCTAATCTTTCTGTTCAAGCGCCATCTAC”, the binding signal (RPM ratio (pull-down/input)) is reported as 0.343.
With “GATGATTGTTCTCCCAGCTGATGAATTTTGACGATCGAGTAAACAAATTTTCCTAATCTTTCTGTTCAAGCGCCATCTAC” the binding signal (RPM ratio (pull-down/input)) was 0.34.
Work on “GATGATTGTTCTCCCAGCTGATGAATTAACGAGTTCGAGTAAACAAATTTTCCTAATCTTTCTGTTCAAGCGCCATCTAC” yielded a binding signal (RPM ratio (pull-down/input)) of 0.361.
“GATGATTGTTCTCCCAGCTGATGAATTGTACCTGTCGAGTAAACAAATTTTCCTAATCTTTCTGTTCAAGCGCCATCTAC” showed a binding signal (RPM ratio (pull-down/input)) of 0.413.
For “GATGATTGTTCTCCCAGCTGATGAATTGAGTACTTCGAGTAAACAAATTTTCCTAATCTTTCTGTTCAAGCGCCATCTAC”, the binding signal (RPM ratio (pull-down/input)) was 0.524.
Work on “GATGATTGTTCTCCCAGCTGATGAATTTTTTCGATCGAGTAAACAAATTTTCCTAATCTTTCTGTTCAAGCGCCATCTAC” yielded a binding signal (RPM ratio (pull-down/input)) of 0.217.
“GATGATTGTTCTCCCAGCTGATGAATTAAGCACTTCGAGTAAACAAATTTTCCTAATCTTTCTGTTCAAGCGCCATCTAC” gave a binding signal (RPM ratio (pull-down/input)) of 0.716.
“GATGATTGTTCTCCCAGCTGATGAATTATCTGGTTCGAGTAAACAAATTTTCCTAATCTTTCTGTTCAAGCGCCATCTAC” was tested, and the binding signal (RPM ratio (pull-down/input)) was 0.309.
For “GATGATTGTTCTCCCAGCTGATGAATTCACAGCATCGAGTAAACAAATTTTCCTAATCTTTCTGTTCAAGCGCCATCTAC”, the binding signal (RPM ratio (pull-down/input)) was 0.801.
In the case of “GATGATTGTTCTCCCAGCTGATGAATTGAAGATATCGAGTAAACAAATTTTCCTAATCTTTCTGTTCAAGCGCCATCTAC”, the binding signal (RPM ratio (pull-down/input)) is reported as 0.353.
For “GATGATTGTTCTCCCAGCTGATGAATTCTATTGCTCGAGTAAACAAATTTTCCTAATCTTTCTGTTCAAGCGCCATCTAC”, the binding signal (RPM ratio (pull-down/input)) was 1.47.
Sequence “GATGATTGTTCTCCCAGCTGATGAATTAGTATGCTCGAGTAAACAAATTTTCCTAATCTTTCTGTTCAAGCGCCATCTAC” has a binding signal (RPM ratio (pull-down/input)) of 3.14.
“GATGATTGTTCTCCCAGCTGATGAATTGTTGTACTCGAGTAAACAAATTTTCCTAATCTTTCTGTTCAAGCGCCATCTAC” was tested, and the binding signal (RPM ratio (pull-down/input)) was 3.07.
“GATGATTGTTCTCCCAGCTGATGAATTACTCTGGTCGAGTAAACAAATTTTCCTAATCTTTCTGTTCAAGCGCCATCTAC” gave a binding signal (RPM ratio (pull-down/input)) of 0.228.
Work on “GATGATTGTTCTCCCAGCTGATGAATTCACACCATCGAGTAAACAAATTTTCCTAATCTTTCTGTTCAAGCGCCATCTAC” yielded a binding signal (RPM ratio (pull-down/input)) of 0.505.
Work on “GATGATTGTTCTCCCAGCTGATGAATTACCTAGATCGAGTAAACAAATTTTCCTAATCTTTCTGTTCAAGCGCCATCTAC” yielded a binding signal (RPM ratio (pull-down/input)) of 0.247.
For “GATGATTGTTCTCCCAGCTGATGAATTAAGTACATCGAGTAAACAAATTTTCCTAATCTTTCTGTTCAAGCGCCATCTAC”, the binding signal (RPM ratio (pull-down/input)) was 0.564.
Sequence “GATGATTGTTCTCCCAGCTGATGAATTCGGCACATCGAGTAAACAAATTTTCCTAATCTTTCTGTTCAAGCGCCATCTAC” has a binding signal (RPM ratio (pull-down/input)) of 0.778.
With “GATGATTGTTCTCCCAGCTGATGAATTGCCCATATCGAGTAAACAAATTTTCCTAATCTTTCTGTTCAAGCGCCATCTAC” the binding signal (RPM ratio (pull-down/input)) was 0.654.
In the case of “GATGATTGTTCTCCCAGCTGATGAATTGACTCTTTCGAGTAAACAAATTTTCCTAATCTTTCTGTTCAAGCGCCATCTAC”, the binding signal (RPM ratio (pull-down/input)) is reported as 0.427.
